Results are given in words; binding and its absence hold for the method and conditions named. Binding seen in cells or lysates may run through a third protein. Some entries that bind do so weakly or less than the wild type. Blank lines part the entries; values can stand above or below the substance they belong to.
Tests used:
HA-HIF1α = HA-HIF1α (UniProt Q16665); assay: co-IP; anti-HA agarose beads, 4 h at 4 °C, lysates of co-transfected HEK293T in IP lysis buffer (20 mmol/L Tris-HCl pH 7.9, 200 mmol/L NaCl, 5 mmol/L MgCl2, 10% glycerol, 0.2 mmol/L EDTA, 0.1% NP-40); Western blot; in Figure 6C with or without co-expressed PPARδ; in Figure 6E cells treated with GW501516 (6 h) or solvent
HA-ΔODD-HIF1α = HA-ΔODD-HIF1α (UniProt Q16665); assay: as above
Flag-PPARδ (human) = Flag-PPARδ (human) (UniProt Q03181); assay: co-IP; anti-Flag agarose beads, 4 h at 4 °C, lysates of co-transfected HEK293T in IP lysis buffer (20 mmol/L Tris-HCl pH 7.9, 200 mmol/L NaCl, 5 mmol/L MgCl2, 10% glycerol, 0.2 mmol/L EDTA, 0.1% NP-40); Western blot; in Figure 6E cells treated with GW501516 (6 h) or solvent
Flag-HIF1α = Flag-HIF1α (UniProt Q16665); assay: as above
HA-PPARδ (human) = HA-PPARδ (human) (UniProt Q03181); assay: co-IP; Figure S5A; which beads and which tagged constructs were used was not shown

Chains of the proteins cited; added tags and fusions are not shown. Lines headed by an entry give the natural chain unless they say otherwise; changes in a name come on top. A line that says so, or that is headed by a name, gives the form on record, which may keep a tag or linker.
UniProt Q16665: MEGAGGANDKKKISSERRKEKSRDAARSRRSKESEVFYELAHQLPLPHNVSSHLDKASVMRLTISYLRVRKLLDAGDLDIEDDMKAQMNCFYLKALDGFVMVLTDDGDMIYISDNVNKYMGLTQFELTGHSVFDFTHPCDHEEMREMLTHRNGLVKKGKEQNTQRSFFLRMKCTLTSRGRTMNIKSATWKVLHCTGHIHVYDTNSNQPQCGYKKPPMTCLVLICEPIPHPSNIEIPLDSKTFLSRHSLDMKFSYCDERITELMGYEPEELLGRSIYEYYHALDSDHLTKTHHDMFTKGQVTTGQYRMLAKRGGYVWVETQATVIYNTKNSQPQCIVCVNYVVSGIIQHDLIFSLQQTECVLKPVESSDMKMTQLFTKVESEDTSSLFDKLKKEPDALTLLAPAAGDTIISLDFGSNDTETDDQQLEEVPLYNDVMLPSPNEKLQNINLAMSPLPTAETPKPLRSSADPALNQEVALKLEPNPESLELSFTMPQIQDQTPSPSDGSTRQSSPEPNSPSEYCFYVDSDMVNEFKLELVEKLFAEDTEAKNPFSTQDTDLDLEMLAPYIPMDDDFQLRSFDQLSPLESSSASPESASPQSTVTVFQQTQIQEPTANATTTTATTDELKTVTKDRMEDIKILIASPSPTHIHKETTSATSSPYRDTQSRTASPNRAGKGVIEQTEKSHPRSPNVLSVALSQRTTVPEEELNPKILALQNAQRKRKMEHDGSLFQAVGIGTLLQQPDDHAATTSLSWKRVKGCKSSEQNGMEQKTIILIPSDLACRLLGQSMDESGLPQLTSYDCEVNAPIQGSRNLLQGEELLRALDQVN
HA-ΔODD-HIF1α (Q16665, form named): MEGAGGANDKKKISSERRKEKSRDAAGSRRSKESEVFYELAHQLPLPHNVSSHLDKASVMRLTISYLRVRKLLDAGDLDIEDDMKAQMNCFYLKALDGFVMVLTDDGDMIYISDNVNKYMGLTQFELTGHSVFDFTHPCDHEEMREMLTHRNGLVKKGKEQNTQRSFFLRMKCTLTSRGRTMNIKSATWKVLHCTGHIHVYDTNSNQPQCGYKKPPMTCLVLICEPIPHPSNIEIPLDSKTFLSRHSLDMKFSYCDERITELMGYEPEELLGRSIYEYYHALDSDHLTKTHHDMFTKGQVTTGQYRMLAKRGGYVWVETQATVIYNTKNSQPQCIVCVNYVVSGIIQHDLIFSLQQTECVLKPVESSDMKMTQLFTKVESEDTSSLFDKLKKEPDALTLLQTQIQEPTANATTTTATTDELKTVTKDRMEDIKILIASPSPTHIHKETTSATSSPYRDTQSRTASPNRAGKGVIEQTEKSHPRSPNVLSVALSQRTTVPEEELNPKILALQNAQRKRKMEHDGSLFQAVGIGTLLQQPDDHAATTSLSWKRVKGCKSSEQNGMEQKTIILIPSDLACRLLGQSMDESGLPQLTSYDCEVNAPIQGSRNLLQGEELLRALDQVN
UniProt Q03181: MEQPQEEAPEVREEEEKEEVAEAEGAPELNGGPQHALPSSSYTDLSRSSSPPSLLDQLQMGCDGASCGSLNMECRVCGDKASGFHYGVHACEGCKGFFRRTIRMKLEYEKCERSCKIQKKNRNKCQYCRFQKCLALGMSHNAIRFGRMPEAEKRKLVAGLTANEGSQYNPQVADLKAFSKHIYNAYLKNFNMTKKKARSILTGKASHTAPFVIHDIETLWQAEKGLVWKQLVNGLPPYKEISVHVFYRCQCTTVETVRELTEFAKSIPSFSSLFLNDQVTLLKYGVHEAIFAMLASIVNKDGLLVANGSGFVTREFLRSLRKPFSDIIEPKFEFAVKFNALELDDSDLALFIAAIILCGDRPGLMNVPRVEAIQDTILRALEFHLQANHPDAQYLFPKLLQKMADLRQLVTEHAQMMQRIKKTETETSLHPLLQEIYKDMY
UniProt P27540: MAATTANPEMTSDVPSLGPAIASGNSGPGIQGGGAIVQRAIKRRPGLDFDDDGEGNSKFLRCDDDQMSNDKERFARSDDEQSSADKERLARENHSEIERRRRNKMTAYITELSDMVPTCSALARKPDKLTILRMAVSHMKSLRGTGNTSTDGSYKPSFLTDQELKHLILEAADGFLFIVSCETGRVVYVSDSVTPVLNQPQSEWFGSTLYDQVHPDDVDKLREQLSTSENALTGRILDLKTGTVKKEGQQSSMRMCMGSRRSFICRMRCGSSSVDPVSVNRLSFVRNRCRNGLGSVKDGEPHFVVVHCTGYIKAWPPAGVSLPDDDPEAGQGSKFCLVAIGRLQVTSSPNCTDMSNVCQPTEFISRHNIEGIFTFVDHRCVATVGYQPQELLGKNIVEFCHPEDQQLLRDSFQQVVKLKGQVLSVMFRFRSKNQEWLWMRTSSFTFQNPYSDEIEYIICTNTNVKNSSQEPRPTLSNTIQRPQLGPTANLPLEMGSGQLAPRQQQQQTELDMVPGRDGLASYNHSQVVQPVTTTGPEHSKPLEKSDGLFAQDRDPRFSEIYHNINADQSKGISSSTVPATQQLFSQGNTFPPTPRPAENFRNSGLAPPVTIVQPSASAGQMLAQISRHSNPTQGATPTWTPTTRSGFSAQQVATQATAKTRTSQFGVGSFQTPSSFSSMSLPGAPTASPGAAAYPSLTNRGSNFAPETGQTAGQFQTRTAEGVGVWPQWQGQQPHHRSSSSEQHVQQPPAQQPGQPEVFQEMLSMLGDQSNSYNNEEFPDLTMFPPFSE

binding (HA-HIF1α): binds
binding (HA-ΔODD-HIF1α): no binding
Substance: Flag-PPARδ (from UniProt Q03181 1-441)

binding (Flag-PPARδ (human)): binds
Substance: HA-HIF1α (from UniProt Q16665 1-826)

binding (Flag-HIF1α): binds
Substance: HA-PPARδ (from UniProt Q03181 1-441)

binding (HA-PPARδ (human)): binds weakly
Substance: Flag-HIF1B (from UniProt P27540 1-789)

Reference: article PMC8825601
